For 62 molecules, inhibition results are on record in PubChem BioAssay AID485344 (National Center for Advancing Translational Sciences (NCATS), 2010).

The whole screen tested about 340,000 compounds, of which about 6,900 (2%) were called active. Cut-off read from the data, not from the text of the source: active = inhibition above about 30%; inactive = below that, where a call was filed. Only a part is listed here, and it is no random draw. Entries without a call were filed so in the source.

Chain of UniProt P14416 (P14416 whole entry, looked up): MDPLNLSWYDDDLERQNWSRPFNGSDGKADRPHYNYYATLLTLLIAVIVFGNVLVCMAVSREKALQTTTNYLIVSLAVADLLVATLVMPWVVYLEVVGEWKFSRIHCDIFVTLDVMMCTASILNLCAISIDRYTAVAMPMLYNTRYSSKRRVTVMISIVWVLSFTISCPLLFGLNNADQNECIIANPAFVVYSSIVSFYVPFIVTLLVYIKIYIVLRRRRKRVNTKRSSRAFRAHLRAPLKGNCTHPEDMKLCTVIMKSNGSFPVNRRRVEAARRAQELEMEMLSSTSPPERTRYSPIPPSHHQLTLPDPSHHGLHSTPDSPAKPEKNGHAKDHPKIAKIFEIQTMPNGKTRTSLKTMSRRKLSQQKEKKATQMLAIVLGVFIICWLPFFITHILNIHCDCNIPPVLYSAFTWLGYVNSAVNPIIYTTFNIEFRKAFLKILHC

In this experiment the target is D(2) dopamine receptor (Homo sapiens) (UniProt P14416). Put plainly: HTS Assay for Allosteric Antagonists of the Human D2 Dopamine Receptor: Primary Screen for Antagonists. Note: 0% is about no effect. The conditions noted are these: HEK293 TREx D2 cells, calcium flux, dopamine EC80; at 10 µM; stronger effect = higher value. The method, boiled down:
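Compounds are added to dye-loaded, induced HEK293 T-REx cells coupled to calcium release via D2; after a 3 min kinetic read an EC80 dopamine stimulus is given and fluorescence is recorded for 3 more min.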
(In general: Calcium assays in cells follow changes in intracellular calcium, usually with a dye or a luminescent sensor.)
`CCc1ccc(-c2[nH]c3c(c2-c2sc(C)c(C(=O)OC)c2O)c(=O)n(C)c(=O)n3C)cc1`: the inhibition (usually the relative decrease from the control value, in per cent) was 23.5%. With `O=C(Cc1ccccc1)Nc1c(C(=O)Nc2ccccc2F)oc2ccccc12`, the inhibition worked out at 15.7%. Next, `Cc1cccc(-n2nnnc2S(C)(=O)=O)c1`: -14.6%; `COC(=O)CNC(=O)CSc1nc2c(sc(=S)n2-c2ccccc2)c(=O)[nH]1`: active: 44%. Consider `CSc1ccc(CCNC(=O)c2ccc(-n3c(C)cc4c3CCCC4)cc2)cc1`, for which the inhibition was 10.1%. For the molecule `Cc1cc(C(=O)NNC(=O)CCN2CCN(c3ccccc3)CC2)c2ccccc2n1`, the inhibition is active: 66.9%. Next, `CC(=O)N1N=C(c2ccc(C)cc2)CC1c1cn(-c2ccccc2)nc1-c1cccs1` (configuration not stated): -11.6%; `O=C(CC12CC3CC(CC(C3)C1)C2)NCC(c1ccc(F)cc1)N1CCOCC1` (configuration not stated): active: 40.1%; `O=C(OCc1cc(=O)n2nc(-c3cccs3)sc2n1)c1ccc(F)cc1`: 13.2%.

On to `CCN(c1ccccc1)c1nnc(NC(=O)Nc2ccc(C)cc2)s1`, for which the inhibition was -0.918%. Next, `CCOc1ccc(C(=O)Nc2cccc(-c3nc4cccnc4s3)c2C)cc1OCC`: 24%; `COc1ccc(/C=C/c2nc(C#N)c(N3CCC(C)CC3)o2)cc1OC`: -6.42%. On to `Cc1ccc2nc3c(cc(C#N)c(=O)n3-c3nnc(SCc4ccccc4Cl)s3)c(=O)n2c1`, for which the inhibition was 2.32%. Next, `COc1ccc(Nc2ncc3c(n2)CCN(Cc2ccc(Br)s2)C3)c(OC)c1`: -21.1%; `Cc1ccc(C)c(N2CCN(S(=O)(=O)c3cc(C(=O)Nc4cc(Cl)cc(Cl)c4)ccc3F)CC2)c1`: -6.43%; `Cc1cccc(-c2nc(CSCC(=O)N3CCN(c4cccc(C)c4C)CC3)c(C)o2)c1`: -19.8%. Next, `CCc1ccc2c(c1)NC(c1cccnc1)=NC(c1ccc(C(C)(C)C)cc1)=N2`: -20.7%; `Cc1ccc(Cl)cc1NC(=O)c1cc(S(=O)(=O)N2CCCCCC2)cn1C`: 3.53%; `COc1cc(C2CC(=O)Nc3c2c(C)nn3-c2nncc(-c3ccccc3)n2)cc(OC)c1OC` (configuration not stated): -10.2%. Next, `O=C(CSc1nc(-c2cccs2)nc2cc(=O)[nH]n12)Nc1ccccc1Cl`: 3.11%; `O=C(Nc1ccccc1Cl)c1cc2c(-c3ccccc3)nn(-c3ccccc3)c2s1`: 0.558%.

On to `Cc1ccc2nc(-c3ccc(Cl)c(NC(=O)c4ccc(Br)o4)c3)oc2c1`, for which the inhibition was -4.54%. Next, `CSc1ccc(CCNC(=O)c2ccc(CS(=O)Cc3ccc(Cl)cc3)o2)cc1` (configuration not stated): -17%; `O=C(COCc1cc(-c2ccc3c(c2)OCO3)on1)NCc1ccc(F)cc1`: 6.63%.

Consider `Cc1nn(-c2ccccc2)c2sc(C(=O)Nc3cccc(O)c3)cc12`, for which the inhibition was 20.3%. As to `O=C(NC1CCN(Cc2ccccc2)CC1)C1COc2ccccc2O1` (configuration not stated), the inhibition was active: 34.2%.

In the case of `Cc1ccc(-n2ncc(C(=O)Nc3c(Cl)cccc3Cl)c2C2CCNCC2)cc1`, the inhibition was -1.21%. For the molecule `COc1cc(CN(C(=O)COc2ccc(Cl)c(C)c2)c2ccccn2)cc(OC)c1OC`, the inhibition is -2.12%. Next, `Cc1csc2nc(COc3ccccc3NC(=O)c3ccccc3Cl)cc(=O)n12`: 15.9%. Next, `COc1ccc(CCNC(=O)CCCn2nc(C)c3sc4ccccc4c3c2=O)cc1OC`: -6.2%. As to `Cn1c(=O)cc(OCC(=O)NCc2ccc(F)cc2Cl)c2ccccc21`, the inhibition is -4.75%.

On to `COc1ccc(C(CNC(=O)c2cc3ccccc3o2)N2CCCC2)cc1` (configuration not stated), for which the inhibition is active: 79.4%. Next, `Cc1ccc(-c2nc(CS(=O)(=O)CC(=O)Nc3cc(C)ccc3C)c(C)o2)cc1`: 10.4%; `COc1ccc(-c2nc3scc(CCNC(=O)Cc4ccc(F)cc4)n3n2)cc1`: -6.53%.

Take `CC(=O)c1c(-c2ccc(Cl)cc2Cl)noc1C`: the inhibition is active: 30.2%.

For the molecule `CCC(C)NC(=O)c1ccc2nc(Cc3ccccc3)oc2c1` (configuration not stated), the inhibition was found to be 22.1%. Take `O=C(Nc1cc(Cl)cc(Cl)c1)c1ccc(F)c(S(=O)(=O)NCc2ccccc2Cl)c1`: the inhibition came to 12.9%. Next, `CCOc1ccc(NS(=O)(=O)c2ccc3nc(-c4ccccc4)[nH]c3c2)cc1`: 4.8%; `Cc1ccccc1-c1nnc(SCC(=O)N2CCCCC2)o1`: -16.3%. Next, `CCN(c1ccccc1)S(=O)(=O)c1nnc(NC(=O)c2ccco2)s1`: -20.1%; `COc1cc(OC)c(Nc2c3c(nc4nc(-c5cccs5)nn24)CCCC3)cc1Cl`: 23.8%. Next, `Cc1cc(C)cc(NC(=O)C2CC3CCC2C3)c1` (configuration not stated): active: 55.7%. For the molecule `COC(=O)C(CCSC)NC(=O)c1cc2c(n(-c3ccc(OC)cc3)c1=O)CC(C)(C)CC2=O` (configuration not stated), the inhibition was determined as 6.9%. Next, `COc1cccc(C(=O)Nc2ccc(NC(=O)c3ccc(C(C)(C)C)cc3)cc2)c1`: 12.3%; `CC1(C(=O)Nc2ncc(Cc3ccc(Br)cc3)s2)Cc2ccccc2C(=O)O1` (configuration not stated): 1.58%. Next, `COc1cccc2c1Oc1ncccc1N(c1ccc(C(=O)NCc3cccc(C)c3)s1)C2`: 3.35%.

For the molecule `Cc1ccc(N2CC(NC(=O)C3CCCCC3)CC2=O)cc1C` (configuration not stated), the inhibition is -7.18%. With `CCc1ccccc1Nc1nn2c(=O)c3ccc(C(=O)NC4CCCCC4)cc3nc2s1`, the inhibition worked out at 15.4%. Next, `CCOC(=O)c1c(N)n(-c2cccc(C)c2C)c2nc3ccccc3nc12`: 4.32%. Take `COc1cc(OC)c(NC(=O)c2c3c(nn2C)-c2ccccc2SC3)cc1Cl`: the inhibition was -16.5%. Next, `CC(C)CCN1CCN(Cc2cccs2)CC1CCO` (configuration not stated): active: 30.8%; `Cc1ccn2c(=O)c(C(=O)NCc3ccccc3Cl)c(O)nc2c1`: 17.1%. Next, `CCc1ccc(CNC(=O)C2CCN(C(=O)N3CC(CC)Oc4ccc(C)cc43)CC2)cc1` (configuration not stated): -9.43%; `O=C(NC1CCCC1)c1ccc2c(c1)N(Cc1ccccc1Cl)C(=O)c1ccccc1S2`: -16.8%; `Cc1cc(C)c(NC(=O)CSc2ncc(S(=O)(=O)c3ccc(C(C)(C)C)cc3)c(=O)[nH]2)c(C)c1`: 3.94%. Next, `COc1ccc(CCNC(=O)Cn2cc(S(=O)(=O)Cc3cccc(Cl)c3)c3ccccc32)cc1OC`: 0.593%; `COc1ccc(-c2noc(CSc3nnc(-c4ccc(Cl)cc4)n3C)n2)cc1OC`: -4.68%. In the case of `Cc1ccc(Cl)cc1NC(=O)CSc1nc(C)c(C)c(C)c1C#N`, the inhibition amounted to 7.11%. On to `CCOc1ccccc1NC(=O)CSc1nc2c(oc3ccccc32)c(=O)n1Cc1ccco1`, for which the inhibition was -12.8%. Next, `CCOC(=O)c1cnc2c(C(F)(F)F)cccc2c1Nc1cccc(C(=O)OC)c1`: -12.3%; `CCCCN(CCCC)CCNC(=O)c1cc(=O)[nH]c2ccc(S(=O)(=O)N3CCCCCC3)cc12`: 9.66%; `Cc1ccc(CNC(=O)C2CCCN(S(=O)(=O)c3ccc4c(ccn4C)c3)C2)cc1` (configuration not stated): 6.99%.
